The other results are listed elsewhere or left out.

Enrichment ratio data for 153 variants are collected here from a collection of fitness landscapes (doi:10.1126/science.1257360).

B1: PhoQ; a variant is named by its letters at X, in order, P23837 (parent)
chain: MKKLLRLFFPLSLRVRFLLATAAVVLVLSLAYGMVALIGYSVSFDKTTFRLLRGESNLFYTLAKWENNKLHVELPENIDKQSPTMTLIYDENGQLLWAQRDVPWLMKMIQPDWLKSNGFHEIEADVNDTSLLLSGDHSIQQQLQEVREDDDDAEMTHSVAVNVYPATSRMPKLTIVVVDTIPVELKSSYMVWSWFIYVLSANLLLVIPLLWVAAWWSLRPIEALAKEVRELEEHNRELLNPATTRELTSLVRNLNRLLKSERERYDKYRTTLTDLTHSLKTPLXXLQXXLRSLRSEKMSVSDAEPVMLEQISRISQQIGYYLHRASMRGGTLLSRELHPVAPLLDNLTSALNKVYQRKGVNISLDISPEISFVGEQNDFVEVMGNVLDNACKYCLEFVEISARQTDEHLYIVVEDDGPGIPLSKREVIFDRGQRVDTLRPGQGVGLAVAREITEQYEGKIVAGESMLGGARMEVIFGRQHSAPKDE

The assay covers variants of B1. Kind of assay: enrichment ratio after two sorts for PhoP signalling (ratio (wild type AVST 3.29)); higher = more functional. The following applies: with PhoP (E. coli).
QLPV: the enrichment ratio is ≤ 0.25.

As to FGTM, the enrichment ratio was ≤ 0.25.

Turning to ARMN, the enrichment ratio was ≤ 0.25.

Regarding TTHM, the enrichment ratio is 9.81.

As for FSFT, the enrichment ratio is ≤ 0.25.

Consider AAQG, for which the enrichment ratio is ≤ 0.25.

In the case of PEIA, the enrichment ratio was ≤ 0.25.

On to YRNY, for which the enrichment ratio is ≤ 0.25.

FSTN: the enrichment ratio was ≤ 0.25.

Turning to HYER, the enrichment ratio was ≤ 0.25.

For HGNK, the enrichment ratio is ≤ 0.25.

Turning to YYNC, the enrichment ratio is ≤ 0.25.

Turning to ARFL, the enrichment ratio is ≤ 0.25.

For IMWI, the enrichment ratio was ≤ 0.25.

Take EAFF: the enrichment ratio is ≤ 0.25.

As to AQAE, the enrichment ratio was ≤ 0.25.

Regarding EQFH, the enrichment ratio was ≤ 0.25.

Consider VKRY, for which the enrichment ratio is ≤ 0.25.

Turning to LLWS, the enrichment ratio is ≤ 0.25.

With KERA, the enrichment ratio was determined as 3.14.

RDKA: the enrichment ratio was ≤ 0.25.

Regarding WDYR, the enrichment ratio is ≤ 0.25.

Consider MCNP, for which the enrichment ratio is ≤ 0.25.

On to RHEK, for which the enrichment ratio was ≤ 0.25.

Turning to GENY, the enrichment ratio is ≤ 0.25.

In the case of SFYC, the enrichment ratio is ≤ 0.25.

Turning to RSFP, the enrichment ratio was ≤ 0.25.

For the variant TIGV, the enrichment ratio stood at 9.86.

Regarding KGPC, the enrichment ratio is ≤ 0.25.

For the variant ERFG, the enrichment ratio was ≤ 0.25.

PMYS: the enrichment ratio is ≤ 0.25.

VCIK: the enrichment ratio was ≤ 0.25.

For KYQP, the enrichment ratio was ≤ 0.25.

Regarding KRKY, the enrichment ratio was ≤ 0.25.

In the case of VFQG, the enrichment ratio is ≤ 0.25.

With LQAY, the enrichment ratio was ≤ 0.25.

In the case of STDL, the enrichment ratio is ≤ 0.25.

As to GMWR, the enrichment ratio is ≤ 0.25.

Consider HLHF, for which the enrichment ratio was ≤ 0.25.

With EGYY, the enrichment ratio was ≤ 0.25.

With AMHC, the enrichment ratio was ≤ 0.25.

As for GTPV, the enrichment ratio is ≤ 0.25.

As for LNVM, the enrichment ratio is ≤ 0.25.

Consider LPKI, for which the enrichment ratio is ≤ 0.25.

Take YQWF: the enrichment ratio was ≤ 0.25.

Take PVGW: the enrichment ratio was ≤ 0.25.

On to RWKP, for which the enrichment ratio is ≤ 0.25.

For the variant NMYS, the enrichment ratio is ≤ 0.25.

Turning to WNKV, the enrichment ratio was ≤ 0.25.

Take ACDC: the enrichment ratio was ≤ 0.25.

For the variant GQRV, the enrichment ratio was ≤ 0.25.

As to FFED, the enrichment ratio was ≤ 0.25.

FSDC: the enrichment ratio is ≤ 0.25.

For MVMH, the enrichment ratio was ≤ 0.25.

With KSFI, the enrichment ratio was ≤ 0.25.

As for YNLA, the enrichment ratio worked out at 0.304.

On to HGGE, for which the enrichment ratio is ≤ 0.25.

For the variant VENH, the enrichment ratio was ≤ 0.25.

QLMQ: the enrichment ratio was ≤ 0.25.

As to EYHH, the enrichment ratio was ≤ 0.25.

Regarding DMRV, the enrichment ratio is ≤ 0.25.

For the variant AIMG, the enrichment ratio was 6.65.

For IVGH, the enrichment ratio was ≤ 0.25.

As to YGMY, the enrichment ratio is ≤ 0.25.

Take LLNF: the enrichment ratio is ≤ 0.25.

Consider GPAR, for which the enrichment ratio was ≤ 0.25.

Consider WECI, for which the enrichment ratio was 0.414.

For the variant FCFT, the enrichment ratio was ≤ 0.25.

With PSGY, the enrichment ratio is ≤ 0.25.

Consider YECC, for which the enrichment ratio worked out at 56.2.

For IPDD, the enrichment ratio was ≤ 0.25.

Take LPEC: the enrichment ratio is ≤ 0.25.

INWY: the enrichment ratio is ≤ 0.25.

Consider PLNH, for which the enrichment ratio is ≤ 0.25.

As for HRNR, the enrichment ratio was ≤ 0.25.

Consider NKVH, for which the enrichment ratio was ≤ 0.25.

Regarding KQPP, the enrichment ratio was ≤ 0.25.

As for IIAF, the enrichment ratio was ≤ 0.25.

On to SYIF, for which the enrichment ratio was ≤ 0.25.

With HPWH, the enrichment ratio was ≤ 0.25.

Regarding GDGV, the enrichment ratio was ≤ 0.25.

In the case of PEHR, the enrichment ratio is ≤ 0.25.

As for FNRP, the enrichment ratio is ≤ 0.25.

For LPNQ, the enrichment ratio was ≤ 0.25.

As to ACNP, the enrichment ratio was ≤ 0.25.

Turning to KMLY, the enrichment ratio was 0.301.

With VFHP, the enrichment ratio is ≤ 0.25.

As for VIVP, the enrichment ratio is ≤ 0.25.

As to QTQL, the enrichment ratio is ≤ 0.25.

Take PWFA: the enrichment ratio was ≤ 0.25.

As for SHSY, the enrichment ratio is 4.52.

In the case of LHHR, the enrichment ratio is ≤ 0.25.

On to VPVT, for which the enrichment ratio was ≤ 0.25.

EMTC: the enrichment ratio was ≤ 0.25.

Regarding GINQ, the enrichment ratio was ≤ 0.25.

As for PSDH, the enrichment ratio was ≤ 0.25.

With SLII, the enrichment ratio was ≤ 0.25.

Turning to EPYM, the enrichment ratio was ≤ 0.25.

Turning to NKNI, the enrichment ratio is ≤ 0.25.

Consider GEVA, for which the enrichment ratio is ≤ 0.25.

Turning to KLAT, the enrichment ratio was ≤ 0.25.

Consider WHWD, for which the enrichment ratio was ≤ 0.25.

Consider NMYN, for which the enrichment ratio was ≤ 0.25.

Consider DALC, for which the enrichment ratio is ≤ 0.25.

Turning to VCRH, the enrichment ratio is ≤ 0.25.

Take LLYA: the enrichment ratio was ≤ 0.25.

Consider HRLS, for which the enrichment ratio is ≤ 0.25.

For FKRD, the enrichment ratio was ≤ 0.25.

As for FWRA, the enrichment ratio is ≤ 0.25.

KETT: the enrichment ratio was ≤ 0.25.

For the variant NYFH, the enrichment ratio was ≤ 0.25.

As for ILGR, the enrichment ratio was ≤ 0.25.

Take RNSV: the enrichment ratio is ≤ 0.25.

On to AVQF, for which the enrichment ratio stood at 2.87.

QVNS: the enrichment ratio was 2.28.

For SCDY, the enrichment ratio is ≤ 0.25.

In the case of DTCA, the enrichment ratio is ≤ 0.25.

Regarding VIRE, the enrichment ratio was ≤ 0.25.

MDDR: the enrichment ratio was ≤ 0.25.

With IYDL, the enrichment ratio was ≤ 0.25.

With TGEL, the enrichment ratio was ≤ 0.25.

With SFIG, the enrichment ratio worked out at 4.64.

Regarding RGHT, the enrichment ratio was ≤ 0.25.

As to IGHH, the enrichment ratio came out at 2.36.

Consider RTLR, for which the enrichment ratio was ≤ 0.25.

Turning to KEMA, the enrichment ratio was ≤ 0.25.

Regarding WLNL, the enrichment ratio is ≤ 0.25.

Consider HGTL, for which the enrichment ratio came out at 6.22.

Regarding PRAM, the enrichment ratio was ≤ 0.25.

With SICF, the enrichment ratio was 9.88.

Regarding MSSV, the enrichment ratio is 9.84.

Take THAI: the enrichment ratio is 14.8.

Consider FAAN, for which the enrichment ratio was ≤ 0.25.

In the case of VGEF, the enrichment ratio is ≤ 0.25.

For RLCG, the enrichment ratio was ≤ 0.25.

In the case of MAPP, the enrichment ratio was ≤ 0.25.

With IKHF, the enrichment ratio is ≤ 0.25.

Turning to WAWD, the enrichment ratio is ≤ 0.25.

In the case of YPRQ, the enrichment ratio was ≤ 0.25.

In the case of NDGA, the enrichment ratio is ≤ 0.25.

In the case of RNKR, the enrichment ratio is ≤ 0.25.

In the case of GEIV, the enrichment ratio was 8.51.

In the case of AWHR, the enrichment ratio worked out at 1.51.

As for KTDF, the enrichment ratio was ≤ 0.25.

For RDCV, the enrichment ratio is ≤ 0.25.

In the case of LLDY, the enrichment ratio is ≤ 0.25.

For the variant WIYC, the enrichment ratio is ≤ 0.25.

Turning to QSHM, the enrichment ratio was found to be 9.47.

GYFP: the enrichment ratio was ≤ 0.25.

Consider NSYD, for which the enrichment ratio is ≤ 0.25.

As for AVCT, the enrichment ratio came to 6.04.

Turning to NITI, the enrichment ratio was ≤ 0.25.

For WVKH, the enrichment ratio was ≤ 0.25.
